# Test results: the supplement of paper PMC12645437, “Orthogonal IMiD-Degron Pairs Induce Selective Protein Degradation in Cells” (ACS Chemical Biology, 2025)
# Some of the results follow.
# Target: no compound (DMSO)
# Test: log2 fold change of degron read counts, EGFP-low vs EGFP+ sorted cells; higher = lower degron-EGFP level without compound (poor expression or instability)
# Settings: compound: DMSO control; 18 h
# 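Also: jurkat cells carrying a lentiviral library of mutant zinc finger degrons fused to EGFP plus mCherry, mCherry+ cells FACS sorted, degron abundance counted by next-generation sequencing.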
row,Sequence,log2 fold change of degron read counts
1,FHCPICGAGFTQKGNLLRHIKL,-0.492
2,FQCPICGAMFTQKGNLLRHIKL,0.00923
3,FRCNICGARFTQKGNLLRHIKL,-0.727
4,LGCPICGFYCTQKGNLLRHIKL,1.58
5,FWCNQCGRRFTQKGNLLRHIKL,0.888
6,FKCEQCGAPFTQKGNLLRHIKL,-1.55
7,FACNVCGAKFTQKGNLLRHIKL,-1.09
8,FHCEICGRLFTQKGNLLRHIKL,-0.246
9,FMCNQCGAPFTQKGNLLRHIKL,-0.376
10,FSCEICGHAFTQKGNLLRHIKL,-0.548
11,FNCEVCGAYFTQKGNLLRHIKL,-0.406
12,FCCEICGAVFTQKGNLLRHIKL,-1.19
13,FGCNQCGHGFTQKGNLLRHIKL,1.32
14,FTCNICGARFTQKGNLLRHIKL,-0.339
15,FECEVCGAEFTQKGNLLRHIKL,-3.08
16,FMCSVCGHRFTQKGNLLRHIKL,-0.354

row,Sequence,log2 fold change of degron read counts
1,FRCEICGHHFTQKGNLLRHIKL,-0.896
2,FMCDICGALFTQKGNLLRHIKL,-0.879
3,FFCPICGAEFTQKGNLLRHIKL,-0.127
4,FQCDICGAYFTQKGNLLRHIKL,-0.918
5,FKCDICGAMFTQKGNLLRHIKL,-1.43
6,FICEICGHFFTQKGNLLRHIKL,-0.776
7,FACEICGHGFTQKGNLLRHIKL,-1.18
8,FRCEQCGAQFTQKGNLLRHIKL,-1.63
9,FKCEQCGAHFTQKGNLLRHIKL,-1.28
10,FGCEICGRMFTQKGNLLRHIKL,-0.636
11,FMCNVCGAYFTQKGNLLRHIKL,0.0957
12,FCCDQCGAGFTQKGNLLRHIKL,-0.619
13,FYCPICGRQFTQKGNLLRHIKL,-1.45
14,FDCNICGAIFTQKGNLLRHIKL,-0.252
15,FNCNQCGRMFTQKGNLLRHIKL,0.0432
16,FDCPICGRLFTQKGNLLRHIKL,0.105
